Source: publication PMC4336329 (PLoS ONE, 2015)
About 2,200 (0.71%) of roughly 310,000 compounds showed an effect of 50% or more. The effect is printed as a negative number. This is one part of the list.

Target: human ether-à-go-go-related gene (hERG) potassium channel (human, UniProt Q12809)
Test: primary screen, population patch clamp on CHO cells stably expressing hERG

Sequence of human ether-à-go-go-related gene (hERG) potassium channel (Q12809 whole entry, looked up): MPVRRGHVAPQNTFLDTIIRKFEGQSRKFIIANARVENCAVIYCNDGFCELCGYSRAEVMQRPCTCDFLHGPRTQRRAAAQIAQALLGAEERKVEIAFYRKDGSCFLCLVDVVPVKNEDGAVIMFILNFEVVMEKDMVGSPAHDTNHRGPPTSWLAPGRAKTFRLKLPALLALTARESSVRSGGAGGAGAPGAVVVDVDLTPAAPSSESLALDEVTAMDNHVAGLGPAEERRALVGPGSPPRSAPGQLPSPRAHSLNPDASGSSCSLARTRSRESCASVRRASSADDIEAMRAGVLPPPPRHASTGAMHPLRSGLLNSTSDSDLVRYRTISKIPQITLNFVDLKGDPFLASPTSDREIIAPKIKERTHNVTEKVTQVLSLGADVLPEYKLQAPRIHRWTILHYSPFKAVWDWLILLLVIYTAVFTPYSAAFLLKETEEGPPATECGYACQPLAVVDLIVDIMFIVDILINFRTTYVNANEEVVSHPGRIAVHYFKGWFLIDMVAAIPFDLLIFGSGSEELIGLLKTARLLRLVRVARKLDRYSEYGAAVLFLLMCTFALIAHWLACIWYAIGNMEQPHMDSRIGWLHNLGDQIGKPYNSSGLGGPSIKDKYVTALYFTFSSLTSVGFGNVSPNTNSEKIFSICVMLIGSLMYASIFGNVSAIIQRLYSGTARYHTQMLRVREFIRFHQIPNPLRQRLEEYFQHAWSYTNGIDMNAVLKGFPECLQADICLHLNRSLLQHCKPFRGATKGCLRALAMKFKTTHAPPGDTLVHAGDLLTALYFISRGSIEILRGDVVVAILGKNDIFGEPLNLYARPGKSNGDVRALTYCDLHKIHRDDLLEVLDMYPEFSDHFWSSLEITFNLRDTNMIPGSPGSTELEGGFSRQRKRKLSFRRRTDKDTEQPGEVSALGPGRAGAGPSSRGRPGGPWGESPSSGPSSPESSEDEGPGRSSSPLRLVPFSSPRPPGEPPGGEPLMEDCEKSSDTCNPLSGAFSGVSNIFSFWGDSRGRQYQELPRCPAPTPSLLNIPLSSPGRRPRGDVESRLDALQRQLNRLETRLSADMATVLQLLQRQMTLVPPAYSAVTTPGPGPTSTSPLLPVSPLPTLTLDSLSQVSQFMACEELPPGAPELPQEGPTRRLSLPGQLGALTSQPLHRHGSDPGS

Row | Compound | hERG current change (%, negative = inhibition) at 1uM [%]
1 | CCOc1ccccc1C(=O)Nc1cc(=O)n(C)c(=O)n1C | 9.12
2 | CCOc1ccc(-n2c(C)cc(C(=O)CCl)c2C)cc1 | 12.6
3 | COC(=O)N1CCc2c(sc(NC(=O)C3=COCCO3)c2C#N)C1 | 3.5
4 | O=C(CNC(=O)c1ccco1)OCC(=O)c1ccccc1Cl | 6.37
5 | O=C1c2ccccc2C(=O)N1OCc1ccccc1[N+](=O)[O-] | 17.6
6 | COc1ccc(NC(=O)/C(=C\c2ccc(OS(=O)(=O)c3ccc(C)cc3)cc2)NC(=O)c2ccccc2)cc1 | 16.7
7 | N#Cc1c(-c2ccccc2F)cc(C2CC2)nc1SCC(=O)c1cccs1 | 20.5
8 | Cc1cc(=O)oc(C)c1C(=O)N1CCN(c2ccc(F)cc2)CC1 | 11.9
9 | Cc1oncc1C(=O)Nc1cccc(C#N)c1 | 10.1
10 | CCN(CC)C(=S)SC1=CCS(=O)(=O)C1 | 14.8
11 | CC(C)C[C@@]12C(=O)N(c3cccc(Cl)c3)C(=O)N1[C@H](c1ccc(F)cc1)[C@@H]1C(=O)N(C3CCCCC3)C(=O)[C@@H]12 | 8.58
12 | CCc1cc(=O)oc2c(C)c(OCC(=O)NCCN3CCOCC3)ccc12 | 12.8
13 | COCCNC(=S)N(CCc1c(C)[nH]c2ccc(OC)cc12)Cc1ccco1 | 9.99
14 | CN(c1nc(-c2ccc(Br)cc2)cs1)C1CCS(=O)(=O)C1 (centres unmarked) | 3.41
15 | CCOC(=O)/C(C#N)=C\c1ccc(N2CCN(C)CC2)cc1 | -2.52
16 | COc1ccccc1C(=O)NC(=S)NC12CC3CC(CC(C3)C1)C2 | -0.975
17 | Cc1cc(C)c2nc(N3C(=O)C(O)=C(C(=O)c4ccco4)C3c3ccc(O)cc3)sc2c1 (centres unmarked) | 17.5
18 | Cc1cc(C)cc(NC(=S)N2CCN(S(=O)(=O)c3ccccc3)CC2)c1 | 6.44
19 | COc1ccc(C(=O)OCC(=O)NC(=O)NC2CCCC2)c(O)c1 | 15
20 | CC(=O)c1ccc2c(c1)c1ccccc1n2CC(C)C | 5.8
21 | Cc1ccc(OCC(=O)NC2CCCc3ccccc32)c(C)c1 (centres unmarked) | 3.53
22 | CC(C)(C)NC(=O)C(c1ccc(OCC(N)=O)cc1)N(C(=O)c1cccnc1)C1CC1 (centres unmarked) | -0.31

Row | Compound | hERG current change (%, negative = inhibition) at 1uM [%]
23 | COC(=O)Nc1ccc(S(=O)(=O)N2CCCC(C(=O)N3CC(C)OC(C)C3)C2)cc1 (centres unmarked) | 14.3
24 | Cc1ccc(C)c(N=C2CCCN2Cc2ccccc2)c1C#N | 7.76
25 | CCN(CC)S(=O)(=O)c1ccc(C(=O)N2CCN(CCN3C(=O)c4cccc5cccc(c45)C3=O)CC2)cc1 | 10.3
26 | CCc1ccc(S(=O)(=O)NCCc2csc(-c3cccnc3)n2)s1 | 9.64
27 | CC(C)CCNC(=O)NC(=O)CSc1nnc(-c2ccccc2F)n1N | -3.73
28 | O=C(Cc1ccccc1)NCC1OCCc2ccccc21 (centres unmarked) | 1.84
29 | COC(=O)c1cc(Br)c(=O)n(Cc2ccc3c(c2)OCO3)c1 | -0.586
30 | C/C(CCc1ccccc1)=N\NC(=S)NCCc1ccccc1 | 21.7
31 | COC(=O)CCP(=O)(O)Cc1ccccc1CP(=O)(O)CCC(=O)OC | 5.13
32 | COc1ccc(OC)c(NC(=O)c2nnn(Cc3ccc(Br)cc3F)c2N)c1 | 13.9
33 | COc1ccc(N2C(=O)C(CC(=O)Nc3ccccc3)N(Cc3ccccn3)C2=S)cc1 (centres unmarked) | 5.08
34 | Cc1ccc2cc(CN(CC3CCCO3)C(=S)NCc3ccco3)c(=O)[nH]c2c1C (centres unmarked) | 6.14
35 | Cc1ccc(C)c(Cn2c(=O)n(CCCC(=O)NCc3ccco3)c(=O)c3ccccc32)c1 | 10.2
36 | COC(=O)C1CCCCN1C(=O)CCc1nnc(CCc2c[nH]c3ccccc23)o1 (centres unmarked) | 12.8
37 | CCOC(=O)CSC1=C(C#N)C(c2ccccc2Cl)C(C(=O)OC)C(=O)N1 (centres unmarked) | 3.46
38 | COc1ccc2cc(C)c3nnc(SCC(=O)Nc4nc(-c5ccccc5)cs4)n3c2c1 | -8.76
39 | COc1ccc(C(CC(=O)Nc2nccs2)n2cccc2)cc1 (centres unmarked) | 13.4
40 | Cc1ccc(S(=O)(=O)N2CCOCC2)cc1C(=O)Nc1ccc(S(=O)(=O)Nc2nccs2)cc1 | 6.12
41 | O=C(Nc1ccccc1)c1ccccc1OCc1cccc([N+](=O)[O-])c1 | 14.1
42 | Cc1ccc(-c2nnc(COc3cccc(-n4cnnn4)c3)o2)cc1 | 3.56
43 | O=C(c1ccncc1)N1N=C(c2ccc(Cl)cc2)CC1c1ccccc1O (centres unmarked) | 23.4
44 | CC[C@@]12C(=O)N(c3cccc(Br)c3)C(=O)N1[C@H](c1ccc(OC)cc1)[C@@H]1C(=O)N(C(C)(C)C)C(=O)[C@@H]12 | 1.03
